Hit rate of the full screen: of about 52,000 compounds, about 4,300 (8.3%) were called active. Cut-off read from the data, not from the text of the source: active = survival mostly below about 52% (no sharp cut-off); inactive = mostly above about 56%. The list shows a part of the results.

In the assay the test system is DeltatarO mutant. The assay can be described thus: S. aureus survival, RN4220 and DeltatarO strains – OD600, teichoic acid synthesis inhibitors, primary screen (AID 463173). To be noted: S. aureus RN4220 wild type/DeltatarO growth, OD600, 18 h, active compounds read low, screened at 18.75 µg/mL (by protocol).
As for `CC(=O)c1cccc(-n2c(=O)c3c4c(sc3n(CC(=O)c3ccc(Cl)cc3)c2=O)CN(C(C)=O)CC4)c1`, the survival was inactive: 82%. In the case of `CC1CCCCN1C(=O)CSc1n[nH]c(-c2ccccc2)n1` (centres undefined), the survival is inactive: 85%. Regarding `Cc1cccc(C(=O)N(Cc2ccco2)Cc2ccccc2F)c1`, the survival was inactive: 102%. Take `N#Cc1ccccc1Cn1c(SCC(=O)Nc2ccc(F)cc2)nc2ccccc21`: the survival is inactive: 94%. For the compound `O=C(COc1ccccc1)Nc1ccc2nc(SCC(=O)N3CCc4ccccc43)sc2c1`, the survival is inactive: 62%. Then `Cn1cnc(S(=O)(=O)N2CCC(C(=O)Nc3ccc(C#N)cc3)CC2)c1`, with inactive: 107%; and `Clc1cccc(N2CCN(c3c4c(nc5nncn35)CCC4)CC2)c1`, with inactive: 98%; and `CC(=O)c1ccc(NC(=O)c2nc(-c3ccccc3)n(-c3ccccc3Cl)n2)cc1`, with inactive: 64%. Under `COc1ccc(CNCCCSc2nnnn2C)c(OC)c1` stands inactive: 89%; under `c1ccc(-c2cnnn2-c2ccccc2)cc1`, inactive: 87%; under `CCc1nnc(SCc2ccc(F)cc2Cl)c2cc3sc(C)cc3n12`, inactive: 87%. `COc1ccc(NC(=O)C2CCC(CNS(=O)(=O)c3ccc4c(c3)C(C)(C)C(=O)N4C)CC2)cc1` (centres undefined): the survival was inactive: 54%. On to `CCOc1ccc(Nc2ncnc3c2nc2n3CCCCC2)cc1`, for which the survival is inactive: 126%. In the case of `O=C(NCc1ccc2c(c1)OCO2)C1CCN(c2ccc(S(=O)(=O)N3CCCC3)cc2)CC1`, the survival is inactive: 72%.

Consider `O=C(Nc1nnc(S(=O)(=O)N2CCCCCC2)s1)c1cccc(Br)c1`, for which the survival was active: 9%. Regarding `Cc1ccc(-c2noc(-c3ccc(N4CCCCC4C)c([N+](=O)[O-])c3)n2)cc1` (centres undefined), the survival is inactive: 78%. For the compound `COc1cc2oc(=O)c(CC(=O)NCc3ccc(OC)c(OC)c3)c(C)c2cc1Cl`, the survival was inactive: 71%.

As to `CCCCn1c(=O)c2oc3ccccc3c2n(Cc2cccc(C)c2)c1=O`, the survival is inactive: 57%.

For the compound `Cc1c(C(=O)Nc2ccc(-c3nc4cc(Cl)ccc4o3)cc2)oc2ccccc12`, the survival was inactive: 104%.

With `Cc1c(Cl)cccc1NC(=O)c1cc2sccc2n1Cc1ccc(F)cc1`, the survival is inactive: 89%. Turning to `COc1ccc(N(C)C(=O)c2nc(-c3cccc(F)c3)n3c2CCCCC3)c(OC)c1`, the survival is inactive: 74%. Take `CC(C)(C)n1nnnc1C(c1cccnc1)N(Cc1ccccc1)Cc1ccco1` (centres undefined): the survival is inactive: 89%. Then `CCOC(=O)c1ccccc1NC(=O)c1ccc2c(Cl)c3c(nc2c1)CCC3`, with inactive: 96%.

`Cc1nn(CC(=O)NCC(C)c2ccccc2)c(=O)c2cc3ccccc3n12` (centres undefined): the survival was inactive: 77%.

`CCOc1ccc(CNC(=O)C2CCN(S(=O)(=O)c3ccc4c(ccn4C)c3)CC2)cc1`: the survival was inactive: 101%. Then `Clc1ccc(-n2ccc3ccccc32)cc1`, with inactive: 95%; and `CC(C)OC(=O)/C(C#N)=C\c1cccn1C`, with inactive: 73%.

For the compound `N#CCNC(=O)c1cccc(I)c1`, the survival is inactive: 89%. Turning to `COc1cccc(Cn2c(=O)cc(C)c3c(C)nn(-c4ccc(C)cc4)c32)c1`, the survival was inactive: 85%. `CCOc1ccc(NC(=O)CN2CCN(C3CCCCC3)C(=O)C2=O)cc1`: the survival is inactive: 62%. Take `Cc1ccc(S(=O)(=O)N2CCc3cc(C(=O)NCCc4ccccc4)ccc32)cc1`: the survival was inactive: 104%. For the compound `Cc1ccc(-c2cc(-c3coc4ccccc4c3=O)c3c(n2)-c2ccccc2OC3)cc1`, the survival is inactive: 72%. As for `Cc1c(-c2cccc(NC(=O)Nc3ccccc3)c2)nc2ncccn12`, the survival was inactive: 76%. In the case of `Cc1cc(-c2ccc(S(=O)(=O)NCc3ccccc3Cl)s2)on1`, the survival is inactive: 128%. Take `N#Cc1ccc2c(c1)nc1c3cccc4cccc(c(=O)n21)c43`: the survival is inactive: 72%. With `CCS(=O)(=O)N1CCC2(CC1)OC(=O)C(C)=C2C(=O)NCc1ccccc1C`, the survival is inactive: 81%.

With `CCCN(CCC)C1=CC(=O)C(C(C)(C)C)=CC1=O`, the survival was inactive: 103%. Consider `Cc1c(Cl)cccc1NC(=O)c1ccc2nc(C(C)C)oc2c1`, for which the survival was inactive: 80%.

Turning to `C=CCn1c(SCC(=O)O)nnc1-c1ccco1`, the survival was inactive: 108%. Consider `COC(=O)c1nnn(CC(=O)NC(=O)Nc2ccccc2F)c1C(=O)OC`, for which the survival was inactive: 82%. Consider `Cc1ccc(OCc2nnc(SCC(=O)CC(=O)Nc3ccccc3)o2)cc1`, for which the survival is inactive: 87%. For the compound `Cc1noc(NS(=O)(=O)c2ccc(NC(=O)c3ccc(Br)cc3)cc2)c1C`, the survival is inactive: 74%.

Consider `Cc1c(-c2ccccc2)nc2ccccc2c1C(=O)O`, for which the survival was inactive: 95%.

In the case of `O=C(CSc1nc2ccccc2nc1Cc1ccccc1)N1CCN(c2ccccc2)CC1`, the survival is inactive: 77%. In the case of `Cc1cccc(NC(=O)NCCOCCn2c(=O)oc3ccccc32)c1C`, the survival was inactive: 99%.

As for `O=C(O)CN=C1NC2(CCCC2)Cc2ccccc21`, the survival was inactive: 114%.

For the compound `CC(=O)Nc1cc(-c2ccccc2)nn1Cc1cccc(Cl)c1`, the survival is inactive: 57%.

As for `CCN1CCC(N(Cc2ccc(F)cc2)C(=O)Nc2cccc(C(F)(F)F)c2)CC1`, the survival is inactive: 99%. Consider `Cc1ccc(-c2cc(C(=O)N3CCCC3)no2)cc1`, for which the survival is inactive: 98%. `CCc1ccccc1Nc1nn2c(=O)c3ccc(C(=O)Nc4ccc(OC)cc4)cc3nc2s1`: the survival is inactive: 69%. As for `CC(C)n1c(SCC(=O)N(Cc2ccccc2)C(C)(C)C)nc2c1c(=O)n(C)c(=O)n2C`, the survival is inactive: 83%.

`COc1ccccc1C(=O)Nc1cc(-c2ccc(C)cc2)no1`: the survival was inactive: 49%. For the compound `COc1ccc(CCNC(=O)CCc2c(C)c3cc4c(C)coc4cc3oc2=O)cc1`, the survival was inactive: 85%. Then `OC(COc1ccc2ccccc2c1)Cn1ccnc1` (centres undefined), with inactive: 70%; and `Cc1ccc(Cl)cc1NC(=O)CCCN1C(=O)CCn2nc(-c3cn(C)c4ccccc34)cc21`, with inactive: 108%; and `CCOc1ccc(CCNC(=O)CCn2c(=O)c3cccn3c3cccnc32)cc1`, with inactive: 89%. For `COc1ccc(CCC(=O)NCc2nc3cccnc3n2Cc2ccccc2)cc1`, the survival was inactive: 88%.

With `CC1Cc2cc(S(=O)(=O)CCC(=O)Nc3ccc(Cl)cc3F)ccc2N1C(=O)C1CC1` (centres undefined), the survival is inactive: 102%. Take `CC(C)Oc1ccc(C(=O)Nc2ccc(-c3nc4ccccc4s3)cc2)cc1`: the survival was inactive: 79%. Then `COc1ccc(-c2nnn(CCC(=O)O)n2)cc1`, with inactive: 92%; and `CCc1ccccc1NC(=O)C1CCN(S(=O)(=O)c2cc(OC)ccc2OC)CC1`, with inactive: 102%.

For the compound `Cc1ccc(NC(=O)Cn2c(=O)oc3cc(S(=O)(=O)N4CCC(C)CC4)ccc32)cc1Cl`, the survival is inactive: 126%. Under `Cc1cc(NC(=O)N2CCC(CN3CCOCC3)CC2)ccc1Br` stands inactive: 86%; under `COc1cccc(C2C(=O)N(C3CCCCC3)CC(=O)N2Cc2ccc(Cl)cc2)c1` (centres undefined), inactive: 94%.

Take `CCNc1nc(Oc2ccc(=O)n(-c3ccccc3)n2)nc(N(C)C)n1`: the survival was inactive: 84%. Under `COc1cccc(-c2nc3c(c(C)nn3-c3ccccc3)c3cc(OC)c(OC)cc23)c1` stands inactive: 59%; under `CCc1ccc(C2C(C(=O)Nc3ccc(Cl)cc3)=C(C)Nc3ncnn32)cc1` (centres undefined), inactive: 36%; under `Cc1ccc2c(c1)C(=O)OC(C(=O)Nc1ncc(Cc3ccccc3)s1)C2` (centres undefined), inactive: 93%. Turning to `CCC(=O)Nc1ccccc1-c1nc2ccccc2n(C(C)C(=O)Nc2ccc(OC)cc2)c1=O` (centres undefined), the survival is inactive: 55%. With `CN(c1ccccc1)c1ncnc2c1cnn2C`, the survival was inactive: 82%.

Consider `Cc1ccc(S(=O)(=O)Nc2cccc(-c3ccc(N4CCCCC4)nn3)c2)s1`, for which the survival was inactive: 76%.

Turning to `CCOC(=O)C(C)Sc1nnc2ccc3ccccc3n12` (centres undefined), the survival was inactive: 86%. In the case of `O=C(OCCN1CCCCC1)c1cc2ccccc2o1`, the survival was inactive: 85%. As to `Cc1ccc(NC(=O)C(=O)NCc2ccc(Cl)cc2)cc1`, the survival was inactive: 94%.

On to `O=C(NCCc1ccc(Cl)cc1)c1ccc(CSCc2ccccc2Cl)o1`, for which the survival was inactive: 78%.

Consider `Cc1cccc(NC(=O)C2CCCN(S(=O)(=O)c3cccc4nonc34)C2)c1` (centres undefined), for which the survival was inactive: 92%. As for `CC(=O)c1cccc(NC(=O)c2nc(-c3ccc(C)cc3)n3c2CCCCC3)c1`, the survival was active: 34%. For the compound `CCn1c(SCC#N)nnc1-c1cccc(C)c1`, the survival is inactive: 96%. Then `CCOc1ccccc1C(=O)NCc1ccc2c(c1)CCN2C(C)=O`, with inactive: 86%; and `Cc1ccc(C2c3[nH]c4ccccc4c3CCN2C(=O)Nc2ccc(C)c(C)c2)cc1` (centres undefined), with inactive: 62%. In the case of `Nc1ncnc2nc(SCC(=O)O)[nH]c12`, the survival is inactive: 86%. For `Cc1ccc(CNCc2c(C(=O)O)n(Cc3ccccc3C)c3cc(C)ccc23)cc1`, the survival was inactive: 67%. Consider `O=C(Cn1c(=O)sc2ccccc21)Nc1cccc(Cl)c1`, for which the survival was inactive: 83%.

Regarding `CCCCNC(=O)c1[nH]c2ccccc2c1Sc1ccc(C)cc1`, the survival was inactive: 75%. As for `COc1cc(OC)c(NC(=O)CCn2cnc3onc(-c4ccc(F)cc4)c3c2=O)cc1Cl`, the survival was inactive: 72%. Regarding `CCOc1ccc(NC(=O)N(Cc2c[nH]c3ccccc23)C2CCCCC2)cc1`, the survival was inactive: 74%. Regarding `Cc1oc(-c2cccc(Cl)c2)nc1CN1CCC(C(=O)NCCCN2CCN(c3cccc(Cl)c3)CC2)CC1`, the survival is inactive: 63%.

As to `Nc1cc(=O)nc(SCC(=O)Nc2ccc(F)cc2)n1-c1ccc(Cl)cc1`, the survival is inactive: 88%. Regarding `Cc1ccc(C)c(-c2csc(-c3c(N)c(C(=O)c4ccc5c(c4)OCO5)n4ccccc34)n2)c1`, the survival was inactive: 105%. Then `CCN(CC)CCNC(=O)C1CCCN(c2ncnc3onc(C)c23)C1` (centres undefined), with inactive: 78%; and `Cc1c(C(N)=O)nnn1-c1ccc(Br)cc1`, with inactive: 95%. Under `COc1ccc(CCNC(=O)Cn2ncc3c(C)n(Cc4ccccc4F)c(C)c3c2=O)cc1OC` stands inactive: 83%. Then `COc1ccc(CCNC(=O)Cn2nc(C)n3c(cc4occc43)c2=O)cc1OC`, with inactive: 84%. On to `CCOC(=O)c1c(S(=O)(=O)N2CCCC(C(=O)N3CCN(c4ccc(F)cc4)CC3)C2)c(C)n(C)c1C` (centres undefined), for which the survival was inactive: 81%.

Values taken from PubChem BioAssay AID463173 (ICCB-Longwood Screening Facility, Harvard Medical School, 2010).
